According to PubChem BioAssay AID720708 (National Center for Advancing Translational Sciences (NCATS), 2013):
Hit rate of the full screen: of about 360,000 compounds, about 660 (0.18%) were called active. Inconclusive means that the source gave no clear call. Such entries were picked first, then a sample of the others. The call rests on the fitted dose curve; in most records, active means well fitted inhibition curve with a large enough effect; inconclusive means small, poorly fitted or top-dose-only effect; inactive means no such curve, though single readings can be large or run the other way. Potencies of inconclusive entries are left out as doubtful fits.

biological target: Rap guanine nucleotide exchange factor 4 (Homo sapiens) (UniProt Q8WZA2); experiment: qHTS for Antagonist of cAMP-regulated guanine nucleotide exchange factor 2 (EPAC2): primary screen; settings: EPAC2 GEF exchange of Rap1B-BODIPY-GDP, fluorescence; activity, negative = inhibition: at 114 µM (top of the series) unless noted; further: nearly all actives have a fitted effect of over 45% in size
On the % scale 0 is the no-effect control and ±100 the full control effect; potency means the concentration at half of the fitted maximal effect; tags describe the fitted curve by direction and shape.

Chain of UniProt Q8WZA2 (Q8WZA2 whole entry, looked up): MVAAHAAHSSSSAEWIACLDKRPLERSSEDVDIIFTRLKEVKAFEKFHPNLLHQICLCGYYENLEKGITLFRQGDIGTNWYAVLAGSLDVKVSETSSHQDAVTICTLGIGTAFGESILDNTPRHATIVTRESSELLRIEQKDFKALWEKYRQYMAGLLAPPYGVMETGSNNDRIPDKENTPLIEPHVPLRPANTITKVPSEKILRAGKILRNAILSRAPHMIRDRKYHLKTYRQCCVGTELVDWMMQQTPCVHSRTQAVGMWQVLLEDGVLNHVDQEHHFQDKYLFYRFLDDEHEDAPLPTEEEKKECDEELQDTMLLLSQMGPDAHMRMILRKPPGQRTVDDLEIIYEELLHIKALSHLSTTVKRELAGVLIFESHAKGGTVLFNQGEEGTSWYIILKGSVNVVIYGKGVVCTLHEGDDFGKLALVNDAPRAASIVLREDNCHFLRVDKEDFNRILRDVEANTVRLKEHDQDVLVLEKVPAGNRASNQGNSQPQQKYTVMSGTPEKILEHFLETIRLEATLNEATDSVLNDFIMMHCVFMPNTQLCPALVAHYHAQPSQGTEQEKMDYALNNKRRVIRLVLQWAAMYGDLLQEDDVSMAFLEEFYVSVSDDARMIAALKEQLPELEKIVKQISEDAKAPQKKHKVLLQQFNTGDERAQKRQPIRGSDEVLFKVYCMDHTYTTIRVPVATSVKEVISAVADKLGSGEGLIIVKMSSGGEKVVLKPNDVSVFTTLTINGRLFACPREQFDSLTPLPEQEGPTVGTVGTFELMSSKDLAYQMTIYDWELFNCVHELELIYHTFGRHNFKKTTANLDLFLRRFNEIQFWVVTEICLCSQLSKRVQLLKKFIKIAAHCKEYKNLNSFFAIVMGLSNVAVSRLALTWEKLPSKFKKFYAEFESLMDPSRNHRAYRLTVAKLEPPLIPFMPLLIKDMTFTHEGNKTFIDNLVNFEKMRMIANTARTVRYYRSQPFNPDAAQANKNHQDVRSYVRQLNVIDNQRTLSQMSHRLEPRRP

Row | SMILES | Potency | activity, negative = inhibition
1 | COc1ccccc1CN(C)C(=O)c1cc2ccccc2o1 | inconclusive [inhibitor, partial curve] | –
2 | CC[C@]1(C(=O)OC)[C@H]2C(=O)N(Cc3ccccc3)C(=O)[C@H]2[C@H]2CN=C(SCc3ccc(Cl)cc3)N21 | inconclusive [inhibitor, full curve] | –
3 | Cc1nnc(SCc2cccc3ccccc23)s1 | inconclusive [inhibitor, single point] | –
4 | COc1ccc(C=C2CCc3ccccc3C2=O)cc1 | inconclusive [inhibitor, partial curve] | –
5 | CCCCCCCCN1C(=O)[C@H](CC(=O)NCCCC)C[C@@]2(C(=O)OC)CC(C)(C)CC=C12 | inconclusive [inhibitor, full curve, poor fit] | –
6 | COC(=O)C1=CN(c2ccc(OC)cc2)C(N)=C(C#N)C1c1ccccc1F (centres undefined) | inconclusive [inhibitor, full curve] | –
7 | COc1ccc(OC)c(S(=O)(=O)NCC(c2ccco2)N2CCc3ccccc32)c1 (centres undefined) | inconclusive [inhibitor, partial curve] | –
8 | CN1c2ccccc2C(C)(C)C12C=Nc1c(ccc3ccccc13)O2 (centres undefined) | inactive | –
9 | CCOc1ccc(C(=O)NNC(=O)CN2C(=O)NC3(CCCC3)C2=O)cc1 | inactive | –
10 | COCCCNC(=O)C(C#N)c1nc2ccccc2nc1N1CCN(Cc2ccccc2)CC1 (centres undefined) | active: 79.4 µM | –
11 | Cc1cnc(NC(=O)c2ccc3c(c2)OCCO3)s1 | inactive | –
12 | CCc1nc2c(OCc3c(C)noc3C)cccn2c1N(C=O)Cc1ccccc1 | inactive | –
13 | O=C(NC1CCCCC1)c1cc(S(=O)(=O)N2CCOCC2)ccc1Cl | inconclusive [inhibitor, single point] | –
14 | Cc1ccc(Nc2nnc(-c3ccc4c(c3)OCO4)o2)c(C)c1 | inactive | –
15 | CC(Sc1n[nH]c(N)n1)C(=O)Nc1cccc2ccccc12 (centres undefined) | inconclusive [inhibitor, single point] | –
16 | COc1cc(C2C3CN(C)CC=C3C(C#N)=C(N)C2(C#N)C#N)ccc1OC(C)C (centres undefined) | inconclusive [inhibitor, partial curve] | –
17 | Cc1ccc(N2C(=O)CSC2c2cccnc2)c(Cl)c1 (centres undefined) | inconclusive [inhibitor, full curve, poor fit] | –
18 | COc1ccccc1-n1c(SCC(=O)O)nc2c(sc(=S)n2-c2ccc(Cl)c(C)c2)c1=O | inconclusive [inhibitor, full curve, poor fit] | –
19 | O=C(OCc1ccc(Cl)cc1)c1cccnc1Cl | inconclusive [inhibitor, partial curve] | –
20 | O=C(NCc1ccc(F)cc1)c1cc(C2CCCCN2S(=O)(=O)c2ccc(F)cc2F)on1 (centres undefined) | inconclusive [inhibitor, full curve] | –
21 | COc1cc(/C=C2\SC(=S)N(NC(=O)c3ccc(O)cc3)C2=O)ccc1O | inconclusive [inhibitor, single point] | –
22 | Oc1c(Br)cc(Br)cc1CNc1ccc(F)cc1 | inconclusive [inhibitor, partial curve] | –
23 | O=C1OC(c2ccccc2)=N/C1=C\C=C\c1ccco1 | inactive | –

Row | SMILES | Potency | activity, negative = inhibition
24 | c1ccc(-c2ccccc2OCc2nnc3n2CCC3)cc1 | inconclusive [inhibitor, full curve, poor fit] | –
25 | COc1cccc(CN(C)C(=O)c2ccc(Oc3ccccc3)cc2)c1OC | inconclusive [inhibitor, partial curve] | –
26 | CCc1cccc2cc3c(N)c(C(=O)Nc4ccc(S(=O)(=O)N5CCCC5)cc4)sc3nc12 | active: 56.2 µM | –
27 | COc1ccc(C2c3c(-c4ccccc4O)n[nH]c3C(=O)N2Cc2ccco2)cc1 (centres undefined) | inconclusive [inhibitor, full curve] | –
28 | Cc1ccc(NS(=O)(=O)c2cccc(C(=O)Nc3cc(C)on3)c2)cc1 | inconclusive [inhibitor, partial curve] | –
29 | COc1ccc(-c2c(-c3ccc4c(c3)OCO4)noc2C)cn1 | inconclusive [inhibitor, single point] | –
30 | COc1ccc(/C=C2\C(=O)c3ccccc3OC2c2ccccc2)cc1 (centres undefined) | inconclusive [inhibitor, full curve, poor fit] | –
31 | COC(=O)c1cc2occc2n1Cc1nc(-c2ccccc2Cl)oc1C | inconclusive [inhibitor, single point] | –
32 | Cc1cccc(NC(=O)CN2C(=O)CCSc3ccc(S(=O)(=O)N4CCOCC4)cc32)c1C | inactive | –
33 | CCOC(=O)N1CCN(C(=O)c2ccc(N3CC4CC(C3)c3cccc(=O)n3C4)c(NC(=O)c3ccc(F)cc3)c2)CC1 (centres undefined) | inactive | –
34 | CCCCOP(=O)(c1ccc(N(C)C)cc1)C(O)c1c(Cl)cccc1Cl (centres undefined) | inactive | –
35 | Cc1ccc(N2C(=O)c3cccc4c([N+](=O)[O-])ccc(c34)C2=O)c2cccnc12 | inactive | –
36 | COc1ccc(/C=C/CN2CCCC(C(=O)c3ccc(OC)c(F)c3)C2)cc1 (centres undefined) | inactive | –
37 | O=C1c2ccccc2S(=O)(=O)N1Cc1ccccc1[N+](=O)[O-] | inactive | –
38 | O=C1CCCC2=C1CC(C(=O)OCc1ccccc1)C(=O)N2Cc1ccccc1 (centres undefined) | inconclusive [inhibitor, full curve] | –
39 | Oc1ccc(N=Nc2nc(-c3ccccc3)c(-c3ccccc3)[nH]2)cc1 | inconclusive [inhibitor, partial curve] | –
40 | COc1ccc(CN2CCCC(C(=O)N(C)Cc3ccccc3)C2)cc1OC (centres undefined) | inactive | –
41 | CCCCOCCCNC(=O)C[C@@H]1C[C@@]2(C(=O)OC)CCCCC=C2N(Cc2ccco2)C1=O | inactive | –
42 | CCCCCCCCN1C(=O)[C@H](CC(=O)N2CCCC2)C[C@@]2(C(=O)OC)CCCCC=C12 | inconclusive [inhibitor, partial curve] | –
43 | CCOC(=O)C1=C(C)c2ccccc2N(S(=O)(=O)C(F)(F)F)C1C(=O)OCC (centres undefined) | inconclusive [inhibitor, full curve] | –
44 | O=C(Cn1c(NCCCCl)nc2ccccc21)c1ccccc1 | inconclusive [inhibitor, single point] | –
45 | O=c1c2c(-c3ccccc3)csc2nc2c3ccccc3c(NCCN3CCOCC3)nn12 | inconclusive [inhibitor, full curve] | –
46 | CC(C)CNc1ncnc2c1ncn2[C@H]1CN(Cc2cccc3ccccc23)C[C@@H](CO)O1 | inconclusive [inhibitor, partial curve] | –

Row | SMILES | Potency | activity, negative = inhibition
47 | Nc1[nH]c(=S)nc2nc(-c3ccccc3)c(-c3ccccc3)nc12 | – | inconclusive: -6.32% [inhibitor]
48 | Clc1ccc(COn2nnc3ccccc32)c(Cl)c1 | inactive | –
49 | O=C(Nc1ccc2c(c1)CCC2)c1cc2ccccc2o1 | inconclusive [inhibitor, partial curve] | –
50 | Cc1ccc2nc(NC(=O)Cc3cccs3)sc2c1 | inactive | –
51 | COc1ccc2cc(C(=O)N/N=C/c3sc4ccccc4c3O)ccc2c1 | inactive | –
52 | CC(OC(=O)C1CCN(S(=O)(=O)c2ccc(C(C)(C)C)cc2)CC1)C(=O)N1CCOCC1 (centres undefined) | inactive | –
53 | CCN1C(=O)/C(=C/c2ccc(OCc3ccc(C(=O)O)cc3)c(Cl)c2)NC1=S | inactive | –
54 | O=C1CSC(=S)N1/N=C/c1ccc(O)c([N+](=O)[O-])c1 | inconclusive [inhibitor, partial curve] | –
55 | Cc1ccc(OCc2nnc(-c3ccc(Cl)cc3)o2)cc1 | inconclusive [inhibitor, single point] | –
56 | COCCNc1nc(-c2ccc(Cl)cc2C)c2sccc2n1 | inconclusive [inhibitor, full curve] | –
57 | Cc1ccc(-c2nc(-c3ccc(Cl)cc3)sc2CC(=O)O)c(C)c1 | inconclusive [inhibitor, single point] | –
58 | O=C(c1ccccc1)c1cccc(C(=O)c2ccccc2)c1 | inconclusive [inhibitor, full curve] | –
59 | CCC(C)(CCNC(=O)Cc1ccccc1)c1ccccc1OC (centres undefined) | inconclusive [inhibitor, partial curve] | –
60 | CCc1noc(C)c1C(=O)N1CCCSC1=Nc1ccccc1Cl | active: 50.1 µM | –
61 | CCCN(CCC)C(=O)CSc1nc2ccccc2c(=O)n1CC1COc2ccccc2O1 (centres undefined) | inconclusive [inhibitor, full curve, poor fit] | –
62 | O=C(CSC1CC(=O)N(CCc2ccccc2)C1=O)Nc1cccc(Cl)c1 (centres undefined) | inactive | –
63 | CC1=C(C)C(C)=C(C#N)C(=C(C#N)C#N)N1 | inconclusive [inhibitor, partial curve] | –
64 | CC(=O)N1c2ccc(S(=O)(=O)NCCc3ccccc3)cc2CC1C (centres undefined) | inconclusive [inhibitor, partial curve] | –
65 | C[C@H](CO)N1C[C@H](C)[C@@H](CN(C)S(=O)(=O)c2ccccc2F)Oc2ncc(Br)cc2C1=O | inconclusive [inhibitor, full curve, poor fit] | –
66 | Cc1ccc(C(=O)Nn2c(C)nc3ccccc3c2=O)cc1C | inactive | –
67 | Cc1cc(OCC(=O)Nc2ccc(S(=O)(=O)N3CCN(C)CC3)cc2)cc(C)c1Cl | inconclusive [inhibitor, partial curve] | –
68 | COC(=O)[C@H](CCSC)NC(=O)Nc1cccc(C)c1C | inconclusive [inhibitor, full curve, poor fit] | –
69 | CCN(CC)C(=O)C1=C(C)N(Cc2ccc(F)cc2)C(=O)C(CC(=O)NCCCN(C)C)C1 (centres undefined) | inactive | –
